Out of some 410,000 compounds screened, about 6,400 (1.6%) were called active. Inconclusive means that the source gave no clear call. Such entries were picked first, then a sample of the others. The call rests on the fitted dose curve; in most records, active means well fitted inhibition curve with a large enough effect; inconclusive means small, poorly fitted or top-dose-only effect; inactive means no such curve, though single readings can be large or run the other way. Potencies of inconclusive entries are left out as doubtful fits.
Target: Glucagon-like peptide 1 receptor (Homo sapiens) (UniProt P43220)
Assay: qHTS of GLP-1 Receptor Inverse Agonists (Inhibition Mode); further: nearly all actives have a fitted effect of over 55% in size
Conditions: HEK293 GLP-1R CRE-luciferase, luminescence, 24 h, GLP-1R form is constitutively active; series mostly up to 38.3 µM
In short: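 Constitutively active GLP-1R drives a cAMP-responsive luciferase in stably transfected HEK293 cells; test compounds are added after overnight (12 h) attachment and left 24 hr, and signal loss in luminescence marks inhibition.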
Potency means the concentration at half of the fitted maximal effect; tags describe the fitted curve by direction and shape.

Chain of UniProt P43220 (P43220 whole entry, looked up): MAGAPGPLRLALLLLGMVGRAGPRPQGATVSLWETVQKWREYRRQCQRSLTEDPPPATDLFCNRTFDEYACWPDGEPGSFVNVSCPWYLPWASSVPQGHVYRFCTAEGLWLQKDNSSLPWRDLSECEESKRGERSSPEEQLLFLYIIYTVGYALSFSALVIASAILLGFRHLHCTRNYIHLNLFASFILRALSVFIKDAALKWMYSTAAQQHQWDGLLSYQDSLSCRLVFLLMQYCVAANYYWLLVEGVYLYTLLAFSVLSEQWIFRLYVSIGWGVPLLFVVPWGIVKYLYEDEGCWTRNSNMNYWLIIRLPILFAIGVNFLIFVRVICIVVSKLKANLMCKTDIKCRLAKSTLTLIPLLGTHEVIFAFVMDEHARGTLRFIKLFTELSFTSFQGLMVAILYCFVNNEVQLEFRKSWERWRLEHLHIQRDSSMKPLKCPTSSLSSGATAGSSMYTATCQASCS

Compound | Potency
CCOC(=O)c1c(-c2ccc(C)o2)csc1NC(=O)CN1CCCCC1 | inconclusive [inhibitor, full curve, poor fit]
CN(c1ccc(F)cc1)S(=O)(=O)c1ccc(Cl)c(C(=O)Nc2ccncc2)c1 | inconclusive [inhibitor, partial curve, poor fit]
Clc1ccccc1-c1nnc2sc(-c3ccc4c(c3)OCO4)nn12 | inactive
Cc1cc(OCC(=O)N(C(C)C)C(C)C)cc(C)c1Br | inconclusive [inhibitor, partial curve, poor fit]
COC(=O)c1ccc(S(=O)(=O)N2CCN(C(c3ccccc3)c3ccccc3)CC2)n1C | inconclusive [inhibitor, partial curve, poor fit]
Cc1ccc(S(=O)(=O)CC(=O)N(CCCN2CCOCC2)c2nc3c(F)cccc3s2)cc1 | inactive
C#CCNC(=O)C[C@@H]1C[C@@]2(C(=O)OC)CCCCC=C2N(Cc2ccc3c(c2)OCO3)C1=O | inactive
COc1cccc(C2CC(C(F)(F)F)n3ncc(C(=O)NCc4ccco4)c3N2)c1 (stereo unspecified) | inconclusive [inhibitor, partial curve]
COc1ccccc1CNC(=O)Cn1c(=O)nc(-c2ccccc2F)c2cc(Cl)ccc21 | inactive
CC(C)(C)NC(=O)COc1ccc2oc3c(c2c1)CCCC3 | inconclusive [inhibitor, single point]
Cc1ccc(Nc2nc(C(=O)N3CCC(C(=O)NCc4ccccc4)CC3)cs2)cc1 | inconclusive [inhibitor, partial curve]
CCCCc1ccc(NC(=O)c2cnccn2)cc1 | inconclusive [inhibitor, single point]
COc1ccc(CC(N)c2csc(Nc3cc(NCc4ccco4)ncn3)n2)cc1 (stereo unspecified) | inconclusive [inhibitor, single point]
O=C(CCC(=O)Nc1ccc(F)cc1)N/N=C/c1ccccc1O | inconclusive [inhibitor, single point]
CC1(C(=O)Nc2cccc3ccccc23)CCN1C(=O)Cc1ccc(Cl)cc1Cl (stereo unspecified) | inconclusive [inhibitor, single point]
COc1ccc(OC)c(C(=O)CC2(O)C(=O)N(Cc3ccccc3C)c3ccccc32)c1 (stereo unspecified) | inconclusive [inhibitor, single point]
COc1ccc(CNS(=O)(=O)c2cc(OCC(N)=O)c(C)cc2Cl)cc1 | inconclusive [inhibitor, partial curve, poor fit]
Cc1ccc(S(=O)(=O)C2(C(=O)Nc3ccc(Cl)c(C(F)(F)F)c3)CC2)cc1 | inconclusive [inhibitor, single point]
COc1cc(OC)cc(C(=O)Nc2nc(-c3ccccc3)c(-c3ccccc3)o2)c1 | inconclusive [inhibitor, full curve, poor fit]
N#Cc1ccsc1NC(=O)CN(Cc1ccccc1)Cc1ccccc1 | inconclusive [inhibitor, single point]
O=C(NCc1ccccc1CN1CCCC1)c1cc2ccccc2o1 | inconclusive [inhibitor, partial curve, poor fit]

Compound | Potency
Cc1ccc(CC(=O)Nc2cccc(C)n2)cc1 | inactive
Cc1ccc(-n2ncc3c(NCCCN4CCOCC4)ncnc32)cc1C | inconclusive [inhibitor, single point]
Cc1cccc(N2CCN(C(=O)CSc3ccsc3[N+](=O)[O-])CC2C)c1 (stereo unspecified) | inconclusive [inhibitor, single point]
CCOC(=O)C1=C(SCC(=O)Nc2ccccc2)NC(=O)C(C#N)C12CCCCC2 (stereo unspecified) | inconclusive [inhibitor, partial curve, poor fit]
Cc1ccnc(NC(=O)c2ccc(S(=O)(=O)N3CCC(C)CC3)cc2)c1 | inconclusive [inhibitor, single point]
CCOC(=O)c1ccc(NC(=O)CSc2nnc(NC(=O)c3ccc(S(=O)(=O)N4CCOCC4)cc3)s2)cc1 | inactive
O=C(CC(C(=O)O)c1cccc(Br)c1)c1ccc(Cl)cc1 (stereo unspecified) | inconclusive [inhibitor, partial curve, poor fit]
Cc1cc(C)c2nc(N(CCCN(C)C)C(=O)c3ccc(S(=O)(=O)N4CCCCCC4)cc3)sc2c1 | active: 12.6 µM
COc1cccc(/C=C2\SC(=S)N(NS(=O)(=O)c3ccccc3)C2=O)c1OC | inconclusive [inhibitor, partial curve, poor fit]
Cc1c(C(=O)Nc2cccc(C(F)(F)F)c2)sc2nc[nH]c(=O)c12 | inconclusive [inhibitor, partial curve, poor fit]
Cc1cc(Cl)c2oc(C(=O)NCCN3CCCCC3CO)c(C)c2c1 (stereo unspecified) | inconclusive [inhibitor, single point]
Cc1ccc(S(=O)(=O)Nc2ccc(O)c3ncccc23)cc1 | inconclusive [inhibitor, single point]
Cc1ccc(S(=O)(=O)n2cc(C=O)c3ccccc32)cc1 | inconclusive [inhibitor, partial curve, poor fit]
Cc1ccc(CC2S/C(=N/c3ccccn3)NC2=O)cc1 (stereo unspecified) | inconclusive [inhibitor, full curve]
Cc1cc(NC(=O)CSc2nnc(-c3ccccc3)c(-c3ccccc3)n2)no1 | inconclusive [inhibitor, full curve, poor fit]
Cc1ccccc1OCCN(C#N)c1nc(N(C)C)nc(N(C)C)n1 | inconclusive [inhibitor, partial curve, poor fit]
CN(C)CCCNC(=S)NCC(c1ccc(Cl)cc1Cl)c1c[nH]c2ccccc12 (stereo unspecified) | inconclusive [inhibitor, partial curve, poor fit]
Nc1nc2c(ncn2COC(CO)CO)c(=O)[nH]1 | inactive
COc1ccc(NC(C)=O)c([N+](=O)[O-])c1[N+](=O)[O-] | inactive
COc1cccc(/C=C2\SC(=S)N(CCCC(=O)Nc3cccc(C(=O)O)c3)C2=O)c1 | inconclusive [inhibitor, partial curve]
C/C(=N\NC(=S)NC(C)C)c1cccc([N+](=O)[O-])c1 | inconclusive [inhibitor, single point]

Compound | Potency
CC(=O)c1[nH]c(C)c(C(=O)N2CCCC(Nc3ccc(C(C)C)cc3)C2)c1C (stereo unspecified) | inconclusive [inhibitor, partial curve, poor fit]
O=[N+]([O-])c1cc2c(cc1CN1CCN(c3ccc(F)cc3)CC1)OCO2 | inconclusive [inhibitor, partial curve, poor fit]
CCCCn1c(SCC(=O)N2c3ccccc3CCc3ccccc32)nc2c1c(=O)n(C)c(=O)n2C | inactive
O=C(OCc1ccccc1)N(CCCCN(CCCNCc1ccccc1)C(=O)OCc1ccccc1)CCCNCc1ccccc1 | active: 2.82 µM
N#Cc1ccc(NC(=O)Cn2cnc(S(=O)(=O)N3CCc4ccccc43)c2)cc1 | inconclusive [inhibitor, single point]
CCOC(=O)c1cnc2c(CC)cccc2c1NCCCN1CCOCC1 | inconclusive [inhibitor, single point]
CCOc1ccccc1NC(=S)N1CCN(c2cccc(OC)c2)CC1 | inconclusive [inhibitor, partial curve, poor fit]
COc1ccc(C(=O)/C=C/c2cn(CC(O)CN3CCc4ccccc43)c3ccccc23)cc1OC (stereo unspecified) | active: 10 µM
O=C(Nc1ccc2ncccc2c1)c1cc(Cl)ccc1Cl | inconclusive [inhibitor, partial curve, poor fit]
COc1ccc(C(=O)N/N=C(/C)c2cccc(NC(=O)C(F)(F)F)c2)cc1 | inconclusive [inhibitor, partial curve]
CN(c1ccccc1)S(=O)(=O)c1ccc(Cl)c(C(=O)Nc2ccncc2)c1 | inconclusive [inhibitor, partial curve, poor fit]
Cc1ccccc1C(=O)N1CCN(c2ccc(NC(=O)c3ccco3)cc2Cl)CC1 | inconclusive [inhibitor, partial curve, poor fit]
CCC(C(=O)Nc1cc(C)ccc1C)n1c(=O)c(C(F)(F)F)nc2ccccc21 (stereo unspecified) | inactive
COc1cc(C(C)=O)ccc1OCC(=O)Nc1ccc(Cl)c(S(=O)(=O)N2CCOCC2)c1 | inactive
CCOc1ccccc1CN(Cc1ccco1)S(=O)(=O)c1ccc(-n2cnnn2)c(OC)c1 | inconclusive [inhibitor, full curve, poor fit]
CC(=O)N/N=C/c1cc(C(C)(C)C)cc(/C=N/NC(C)=O)c1O | inconclusive [inhibitor, partial curve, poor fit]
COc1ccc(OC)c(/C=C/c2nc3ccccc3c(=O)n2-c2ccc(F)c(Cl)c2)c1 | inconclusive [inhibitor, single point]
Cc1ccccc1CSCCNC(=O)CCSc1ccccc1 | inconclusive [inhibitor, single point]
CC(C)N(C(=O)[C@H]1C[C@H](CC(=O)NCCc2ccccn2)C(=O)N2CCc3c([nH]c4cc(-c5ccco5)ccc34)[C@]12C)C(C)C | inconclusive [inhibitor, single point]

Reference: PubChem BioAssay AID624417 (National Center for Advancing Translational Sciences (NCATS), 2012)
